Laboratory results from the supplement of paper PMC12067230.
This is a noisy data set.

assay: amyloid nucleation score relative to library mode (yeast Sup35 reporter selection) (log enrichment difference); higher = more amyloid nucleation; sequences are the first 22 residues of the Bri2 peptide extended by up to 12 random residues; conditions: random library (experiment): 1;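 active = nucleation score significantly above 0 at FDR 0.05; inactive = not significantly above 0 or absent from output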
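Further: [psi-pin-] Saccharomyces cerevisiae expressing SupN fusions, induced by 100 µM Cu2SO4, selected 7 d at 30 °C without adenine and uracil, scored by deep sequencing of output versus input.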

Sequence | amyloid nucleation score
EASNCFAIRHFENKFAVETLICQEDVMEGAEMAP | inactive
EASNCFAIRHFENKFAVETLICQEGKD | inactive
EASNCFAIRHFENKFAVETLICQEGTAQLAGQQ | inactive
EASNCFAIRHFENKFAVETLICQELDESGRTSTL | inactive
EASNCFAIRHFENKFAVETLICQELSTVQMALYG | 0.2
EASNCFAIRHFENKFAVETLICQEPALHVQAPVR | inactive
EASNCFAIRHFENKFAVETLICQESICAHRWARM | inactive
EASNCFAIRHFENKFAVETLICQEWRGEGSQGWS | inactive
EASNCFAIRHFENKFAVETLICQF | 3.79
EASNCFAIRHFENKFAVETLICQFENRVFMDRPS | 2.11
EASNCFAIRHFENKFAVETLICQFESMSTHYLSF | inactive
EASNCFAIRHFENKFAVETLICQFRRGKTPQGCG | -0.203
EASNCFAIRHFENKFAVETLICQFWSRLGRCGSL | inactive
EASNCFAIRHFENKFAVETLICQGEYVSN | inactive
EASNCFAIRHFENKFAVETLICQGIVRYPNWSRS | 2.47
EASNCFAIRHFENKFAVETLICQGKAS | inactive
EASNCFAIRHFENKFAVETLICQGR | inactive
EASNCFAIRHFENKFAVETLICQGVVLLVMHAFA | inactive
EASNCFAIRHFENKFAVETLICQGYRCSRSENLG | 0.683
EASNCFAIRHFENKFAVETLICQHGHKTWSRMQW | 3.74

same assay, conditions: random library (experiment): 2

Sequence | amyloid nucleation score
EASNCFAIRHFENKFAVETLICQEEGQVCAKCR | inactive
EASNCFAIRHFENKFAVETLICQEVLCPARCGCR | inactive
EASNCFAIRHFENKFAVETLICQEWNYCSNLIFV | inactive
EASNCFAIRHFENKFAVETLICQFAFSKNVRVGK | 3.26
EASNCFAIRHFENKFAVETLICQFCLFNVVELSV | 6.07
EASNCFAIRHFENKFAVETLICQFIMHCLMGNGV | inactive
EASNCFAIRHFENKFAVETLICQFKSSLGRCVRV | inactive
EASNCFAIRHFENKFAVETLICQFVLVL | inactive
EASNCFAIRHFENKFAVETLICQGCWLYGLESFT | 6.82
EASNCFAIRHFENKFAVETLICQGDVCIYLRYTV | inactive
EASNCFAIRHFENKFAVETLICQGLEIGT | inactive
EASNCFAIRHFENKFAVETLICQGVVIKPVLVLL | inactive
EASNCFAIRHFENKFAVETLICQHAESRPLKRPA | 0.386

same assay, conditions: random library (experiment): 3

Sequence | amyloid nucleation score
EASNCFAIRHFENKFAVETLICQEFTLAPEGMLR | 3.47
EASNCFAIRHFENKFAVETLICQEGMKFGQVGHV | inactive
EASNCFAIRHFENKFAVETLICQEGYDL | inactive
EASNCFAIRHFENKFAVETLICQELLFTCARC | inactive
EASNCFAIRHFENKFAVETLICQEVSTKGPSKEE | inactive
EASNCFAIRHFENKFAVETLICQEWTLVI | inactive
EASNCFAIRHFENKFAVETLICQFKVHCCASAHC | 1.71
EASNCFAIRHFENKFAVETLICQG | inactive
EASNCFAIRHFENKFAVETLICQGEAMNQVGCL | inactive
EASNCFAIRHFENKFAVETLICQGKGILRRECHE | inactive
EASNCFAIRHFENKFAVETLICQGMKVRQVANGR | inactive
EASNCFAIRHFENKFAVETLICQGRFCRCGVRF | inactive
EASNCFAIRHFENKFAVETLICQGSAGDASRASG | inactive
EASNCFAIRHFENKFAVETLICQHELRVRRRADE | inactive
